From PubChem BioAssay AID1508621 (National Center for Advancing Translational Sciences (NCATS), 2021)
Inconclusive results, whose numbers are uncertain, are shown with a selection of clear calls. A potency beside an inconclusive call is a rough fit, not a confirmed value. Calls of active or inactive are those of the source. Calls come from the whole dose curve; as a rule, active = well fitted inhibition curve with a large enough effect; inconclusive = small, poorly fitted or top-dose-only effect; inactive = no such curve, though single readings can be large or run the other way.

Test: Confirmatory qHTS for Identification of Small Molecule Inhibitors of Huntingtin Promoter Activity; note: nearly all actives have a fitted effect of over 65% in size
Conditions: HEK293 HTT promoter firefly luciferase reporter, 24 h; series mostly up to 57.5 µM
Procedure, shortened: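 HEK293 luciferase reporter cells, 2,500/well, cultured 24 h, then exposed to compounds at up to 57.5 uM final for 24 h at 37C. Firefly luciferase luminescence read; normalized to vehicle (0%) and zero RLU (-100%).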
Potency is the fitted concentration of half-maximal effect; tags give direction and shape of the fitted curve.

SMILES	Potency
COc1ccc(C(=O)CN2CCN(S(=O)(=O)c3ccc(C(C)C)cc3)CC2)cc1	inconclusive: 19 µM [inhibitor, partial curve]
COc1ccccc1N1CCN(C(=O)C2CCCN(S(=O)(=O)c3ccc4c(c3)oc(=O)n4C)C2)CC1 (stereo not given)	inconclusive: 8.49 µM [inhibitor, partial curve]
FC(F)(F)c1cccc(Nc2nc3nonc3nc2Nc2ccc(Cl)cc2)c1	active: 0.379 µM
CC(C)(C)OC(=O)N1CCC(c2c(C(=O)N3CCC(c4ccccc4)C3)cnn2-c2ccc(Cl)cc2)CC1 (stereo not given)	inconclusive: 21.3 µM [inhibitor, single point]
Cc1ccccc1-c1nc(CS(=O)CC(=O)N2CCN(c3cc(Cl)ccc3C)CC2)c(C)o1 (stereo not given)	inconclusive: 15.1 µM [inhibitor, partial curve]
CCN(CCCNC(=O)CSc1cc(=O)n(CC)c2ccccc12)c1cccc(C)c1	inconclusive: 21.3 µM [inhibitor, partial curve]
CCOc1ccccc1CNC(=O)c1ccc2nc(Cc3ccc(OC)cc3)oc2c1	inconclusive: 30.1 µM [inhibitor, single point]
O=C(NCc1ccccc1)C(=O)NCC(c1ccco1)S(=O)(=O)c1ccc(Cl)cc1 (stereo not given)	inconclusive: 19 µM [inhibitor, partial curve]
CC(C)OCc1cc(CN2CCN(c3ccccc3)CC2)c(O)c2ncccc12	inconclusive: 5.36 µM [inhibitor, partial curve]
COc1ccc(-c2nc3sc(CCNC(=O)C(C)(C)C)c(C)n3n2)cc1	inconclusive: 37.9 µM [inhibitor, single point]
